Values marked as one replicate rest on one cluster of the flow cell; about a third of the high ones do not repeat.
Tested on: ATP
Assay: switch fluorescence ratio, 500 uM ATP over buffer (Cy3 cluster intensity, sum of 5 cycles each) (fold (ratio)); higher = stronger signal-on switching upon ATP binding; sequences stand for … in TCGTCGGCAGCGTCAGATGTGTATAAGAGACAGTTTTTTTTTTTTTTTTTTTTTTTTT…TC
Conditions: aptamer strand: ATP DNA aptamer (quencher-CACCTGGGGGAGTATTGCGGAGGAAGG + anchor), 100 nM annealed; ATP concentration: 500 uM; one replicate
How it was run: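 Imaging in selection buffer was followed by imaging after 15 min with 500 uM ATP at 22 °C, for Cy3-labelled switching-strand clusters annealed to 100 nM quencher-labelled ATP aptamer on a modified Illumina MiSeq flow-cell. Five of these buffer/ATP cycles ran, separated by NaOH stripping and re-annealing. The fluorescence ratio per cluster is summed target-cycle over summed buffer-cycle Cy3 intensity, averaged per switch-domain sequence; clusters outside 100-1000 RFU were removed.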
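Further: ATP exposure 15 min at 22 °C before imaging.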

Sequence	switch fluorescence ratio
GGCGTAATG	0.985
GCTTCATGC	1.01
GCATGGAGCG	0.959
ACAACGCGGA	1.24
TCATAATTTG	0.968
ATTAGTTGAG	1.01
TTGAATGGAC	1.05
TGATAACTAT	0.979
CCGGGGTACC	1.85
ACATCAGGAA	1.04
GGTCCAAAGC	0.975
CTCGTGGTGA	1.05
TAGCCCGATT	1.01
AGAAGTATGC	0.943
AGTAAATGGT	0.955
TCCTGCGAGC	1.18
CGTCGTGCTG	0.99
GGGGCCCCGA	0.941
GAACGCTAAA	1.64
CAATCGCGCC	1.15
CTCGCGAATG	1.39
ATCAAGGTAT	0.999
CATACCAGGT	1.52
GAACCAATCC	1.47
GGGCGTTGCG	1.05
GATCTGTTAT	0.989

Sequence	switch fluorescence ratio
CTAGCAGGAT	1.03
ATGGGTAGCC	0.977
GGGTAACACC	0.998
CATATGCGTT	0.974
CGGGTGATGG	1.01
TGGTAAGAGA	0.975
TAATTTCGCG	0.971
TAACGGGTT	0.996
CCGTCGGATG	1.03
CTTATGGTAA	1
TTTATACTAG	1.01
GTAATTATGG	0.964
AAGGTCTGTC	1.21
AAAGCGCCGG	1.05
TTAGCACTTG	0.971
CACATGTGAA	1.02
TAAGAATCGA	0.971
GGGGAAAGC	0.941
AGGACTGGCC	1
AGCGCGAGA	1.07
TTCACCATCA	1.06
GAAGGGGGCT	1
AACCATCGCC	1.09
CGAGCCATTT	1.02
TTAGTTTAGC	0.908
CCATTAGTAG	1.04

Sequence	switch fluorescence ratio
TGATAACGCA	1.26
ACTGATAAGG	1.03
CTTGGGGTT	1.03
CAAGGCCAAG	1
TATCGCACAA	1.14
TAGTTTCGGT	0.992
AGATTTTGCT	0.954
CCGCTGAGCT	2.08
TAGTTGAGGT	1.01
TTGACCTAAC	1.36
CCACAGTCGG	1.08
CGAAGGTCTC	0.996
TAGTGGCCCT	1.05
CCCAGGGGGG	1.07
ATATTAAGCT	1.07
TCGGCTGGGT	1
CATTGGAATT	0.986
GCTGGGAGA	1
TCGGTTTCGG	0.992
TTTGGGTCCA	1.01
ATAGCGGTC	1.03
GTGTCTTGGG	0.925
GACCGGTCAT	0.96
CTGGCAAAC	5.66
TCATGATGTT	0.99
GGTTGGATGT	1.01

Sequence	switch fluorescence ratio
AAATTGTATG	0.983
ATCTCCATCA	0.977
GTGGAACAAA	1.01
CGCGGCTCGT	0.972
TTGGTTAGAT	0.99
GGTTAGGGTT	0.978
TCTTCCTTAC	2.64
AATAGTTGT	0.974
AGAAGATTCC	1.15
GAAGAAAGGC	1.19
CAGACTTCAG	1.02
AATCCGATTT	1.03
GACTTTCGTT	0.991
ACCGCATGCG	1.01
TCCGACATGG	1.1
TGAGTCGAGT	0.957
ATCTTCCCTA	0.987
GGTGGAGCTG	0.985
TGTTGGACCT	1.22
AACGGTCGT	0.985
CCACACGCAG	1.71
AGTGTTTTTA	1.02
CGCTCCGTAT	1.51
GCGTGTCTGC	0.992
CCAATGCGCC	1.58
ACCGTGTGGG	0.997

Sequence	switch fluorescence ratio
TTCGCCGAGA	0.992
GGTGGCATGC	0.997
AGTCTTGGGA	1.03
CTGGGTCGAA	1.03
CTAGGGCTCC	0.981
AGTTAATTT	1.02
ATAGGGTGGA	1.02
GAGACCAGCC	1.32
GATCGCGCT	1.01
CGTATCTCCA	1.07
GGACAACAGT	1.01
AATAGGGTGG	1.02
ATGCGTCTTG	0.98
ATCTTTTTCG	1
CCCATGATAT	1.04
TCCATCTTA	0.978
CCAATAGGAG	1.06
TTCCATGGGG	0.998
GGAGAAAGGC	1.7
TAATCCTTGG	1
TTGTAGTGAG	1
AGAACAGGGC	1.05
GCATATACGC	1.96
TTATAAGTCT	0.965
TTTTGTAGTC	1
CTAGATTAAA	0.97

Sequence	switch fluorescence ratio
ACTTCAGTTT	0.991
GTGTCCTTTG	0.997
CGGGAAGG	0.989
TGGAAAAACC	1.06
ATTTTTCTT	0.999
TGCGATCTCT	1.1
CGTGGTAATT	1.01
GATGGAGGAA	0.974
CATACGGTTC	1.14
TTCACTGGA	0.862
TAGGATGGC	0.996
CGATGCTCGG	0.955
GTCTCGAAAG	1
CTTGTCTGGA	1.03
ACCGAGAACT	1.06
GTTTATGGCT	1.04
GGATCAGTGT	0.969
TACCGGAGGC	0.972
AAGCATCCGC	1.07
GGGATTAGCC	0.936
GGTTGAAAT	0.973
GACTGGTTCG	0.991
AATATTTGCA	0.994
AACTCTGTA	0.971
TTGACTGCGC	1.13
GGCGCGCTTG	1

Sequence	switch fluorescence ratio
CCATTAGTGG	0.981
CACCGATAGA	1.05
CTTATTTATC	0.966
GGGGGCGCCC	0.945
TGTGATTGAT	0.991
ACACCTAATG	0.996
AACTAAAAAT	0.954
GGCGGGTCGC	0.993
CACTTAGAGC	1.1
TCTGGGACTC	1.01
TTAACGAATT	1.08
TACAGCTCAA	0.99
CCAGATAGTC	1.04
ACATCTCCTT	0.993
CGGGCGCCGG	0.992
AAGCCTGATC	1.29
GCGGGGAGTC	1.03
TATTACGCAC	1.92
TGGGAGGTGC	1.05
TTAGATGACG	0.916
TGGTCGTTGA	1.01
CCCGGCATT	1.65
AGACAAATCG	0.98
TGCCTGAGCA	0.977
TCTG	0.972
GTTAGTAGAG	1

Sequence	switch fluorescence ratio
AGCGTGACGA	1.03
TACACGTTCG	1.1
GCTTTCGGAA	1.14
TTCTTTGCTG	0.974
TCAGCCCCGC	1.02
TACGTATGAC	1.01
GTATGTTTCG	1.04
TAGTGCACTG	0.972
ATGGACGCGC	1.03
GCTTAAGTAC	2.07
GTTTGACTCT	0.992
CGGAAAATGG	0.991
TTATCCAAG	0.981
GACGTGACGT	1.04
CCGCATGTT	4.41
GTCCTTACG	1.05
AATTCTTCAG	1.04
TATCAACTGT	0.992
TTACGGAAAA	1.35
